Assay results taken from PubChem BioAssay AID504332 (National Center for Advancing Translational Sciences (NCATS), 2011).
“And” between values parts separate entries of the source, which are not always exact repeats. Identical values can stand only once. Hit rate of the full screen: of about 350,000 compounds, about 31,000 (8.9%) were called active. The shares of active, inactive and inconclusive entries below differ from those in the screen. The call rests on the fitted dose curve; in most records, active means well fitted inhibition curve with a large enough effect; inconclusive means small, poorly fitted or top-dose-only effect; inactive means no such curve, though single readings can be large or run the other way. Potencies of inconclusive entries are doubtful fits and often do not repeat.

These compounds were tested against Histone-lysine N-methyltransferase EHMT2 (Homo sapiens) (UniProt Q96KQ7) (assay: qHTS Assay for Inhibitors of Histone Lysine Methyltransferase G9a). Settings: G9a H3K9 monomethylation, AlphaScreen, 2 h; activity, negative = inhibition: at 59 µM (top of the series) unless noted.
Outline: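 G9a (20 nM) preincubated 15 min RT with compounds, then 500 nM biotinylated H3K9 peptide and 20 uM SAM added; 2 h RT reaction. Monomethyl-H3K9 product detected by AlphaScreen with anti-H3K9me1 antibody, streptavidin donor and anti-rabbit IgG acceptor beads.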
Further: nearly all actives have a fitted effect of over 75% in size.
On the % scale 0 is the no-effect control and ±100 the full control effect; potency means the concentration at half of the fitted maximal effect; tags describe the fitted curve by direction and shape.

UniProt Q96KQ7, sequence (Q96KQ7 whole entry, looked up): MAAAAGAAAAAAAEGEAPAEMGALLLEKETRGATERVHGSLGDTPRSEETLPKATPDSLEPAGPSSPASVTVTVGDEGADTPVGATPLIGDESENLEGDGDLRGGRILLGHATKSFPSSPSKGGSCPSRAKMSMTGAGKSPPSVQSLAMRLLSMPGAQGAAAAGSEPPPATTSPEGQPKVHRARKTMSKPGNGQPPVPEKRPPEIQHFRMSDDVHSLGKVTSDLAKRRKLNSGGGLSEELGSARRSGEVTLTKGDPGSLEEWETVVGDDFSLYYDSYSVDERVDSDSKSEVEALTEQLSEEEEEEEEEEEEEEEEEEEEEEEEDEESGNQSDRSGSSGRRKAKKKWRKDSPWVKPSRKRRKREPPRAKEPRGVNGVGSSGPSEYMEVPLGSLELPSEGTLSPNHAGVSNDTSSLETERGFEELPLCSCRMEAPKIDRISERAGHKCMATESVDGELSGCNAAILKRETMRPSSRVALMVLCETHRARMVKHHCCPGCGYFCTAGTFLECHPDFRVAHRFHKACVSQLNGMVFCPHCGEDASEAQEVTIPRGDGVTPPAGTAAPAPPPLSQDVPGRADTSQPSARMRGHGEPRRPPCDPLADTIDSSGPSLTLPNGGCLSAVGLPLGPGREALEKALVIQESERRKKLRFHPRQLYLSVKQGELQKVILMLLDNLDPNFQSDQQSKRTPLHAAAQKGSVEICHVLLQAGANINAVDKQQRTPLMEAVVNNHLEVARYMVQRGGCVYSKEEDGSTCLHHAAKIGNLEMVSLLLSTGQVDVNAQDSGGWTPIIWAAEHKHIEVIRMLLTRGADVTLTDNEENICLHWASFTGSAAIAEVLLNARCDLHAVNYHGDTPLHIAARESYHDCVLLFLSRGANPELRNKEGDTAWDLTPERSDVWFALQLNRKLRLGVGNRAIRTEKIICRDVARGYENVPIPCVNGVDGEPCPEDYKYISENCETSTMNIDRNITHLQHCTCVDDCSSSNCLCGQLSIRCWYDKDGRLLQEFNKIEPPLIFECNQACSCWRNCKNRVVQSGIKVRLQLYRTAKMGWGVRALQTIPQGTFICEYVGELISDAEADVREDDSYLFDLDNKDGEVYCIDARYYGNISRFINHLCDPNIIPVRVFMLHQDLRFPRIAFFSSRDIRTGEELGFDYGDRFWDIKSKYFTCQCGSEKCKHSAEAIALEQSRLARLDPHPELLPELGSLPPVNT

| Structure (SMILES) | activity, negative = inhibition | Potency |
| --- | --- | --- |
| Cc1cccc(C)c1-n1ncc(C(=O)Nc2ccc3c(c2)OCCO3)c1C1CCN(C(=O)OC(C)(C)C)CC1 | inactive: -42.3% | – |
| CCCCn1c(=O)[nH]c(=O)c2c1nc(-c1ccccc1F)n2Cc1ccccc1 | inactive: -48.9% [at 102 µM] | – |
| Cc1cc(OC(C)C(=O)N(Cc2ccco2)C2CCS(=O)(=O)C2)cc(C)c1Cl (centres undefined) | inactive: -10.9% [at 102 µM] | – |
| Oc1ccc(COC2CCN(Cc3ccccc3)C2)c2cccnc12 (centres undefined) | inactive: -3.16% [at 12.7 µM] | – |
| CC(C)c1ccc(/C=N/n2c(COc3ccccc3)n[nH]c2=S)cc1 | – | active: 50.1 µM |
| CCN1CCN(c2ncc(C(=O)Nc3c(F)cc(F)cc3Br)c3ccccc23)CC1 | inconclusive: -56% [inhibitor] | – |
| CC(=O)c1ccc(S(=O)(=O)N2CCCC(N(C)CCc3ccccn3)C2)cc1 (centres undefined) | – | inconclusive: 0.794 µM [inhibitor, full curve, poor fit] |
| CC1CC(C)CN(CCCSc2ccccc2)C1 (centres undefined) | – | inconclusive: 0.631 µM [inhibitor, full curve, poor fit] |
| COc1ccc(OCCNC(=S)Nc2cccc3ccccc23)cc1 | inactive: -11.2% | – |
| CN(CC(=O)Nc1cccc(F)c1)C(=O)Cn1c(=O)cnc2ccccc21 | – | inconclusive: 89.1 µM [inhibitor, partial curve] |
| O=C(NCCN1CCN(c2ccccc2)CC1)c1ccc(NC(=O)C2CCCO2)cc1 (centres undefined) | – | inconclusive: 39.8 µM [inhibitor, single point] |
| COc1ccc(CCCNC(=O)C2CCC(=O)N(CCc3cccc(F)c3)C2)cc1 (centres undefined) | – | inconclusive: 89.1 µM [inhibitor, single point] |
| Cc1[nH]n(-c2ccccc2)c(=O)c1C(C[N+](=O)[O-])c1ccc(Cl)cc1 (centres undefined) | – | inconclusive: 31.6 µM [inhibitor, single point] |
| Cc1c(Cl)cccc1NC(=O)c1ccccc1-c1ccccc1C(=O)O | – | inconclusive: 89.1 µM [inhibitor, single point] |
| Cc1ccccc1OCC(=O)N(Cc1ccco1)c1c(N)n(Cc2ccccc2)c(=O)[nH]c1=O | – | inconclusive: 14.1 µM [inhibitor, single point] |
| CCOc1cccc(-c2c(C(=O)N/N=C/c3ccoc3)nnn2-c2nonc2N)c1 | inactive: 53.6% [at 102 µM] | – |
| CC1(C)CC(C)(c2ccc(O)cc2O)N(c2ccc3ccccc3c2)C(=S)N1 (centres undefined) | – | inconclusive: 25.1 µM [inhibitor, single point] |
| CCCCOC(=O)C1=C(C)NC2=C(C(=O)CCC2)C1c1cc(OC)ccc1OC (centres undefined) | – | inconclusive: 0.891 µM [inhibitor, partial curve, poor fit] |
| O=C(O)CC1(CC(=O)Nc2ccc(Br)cc2)CCCCC1 | – | inconclusive: 7.94 µM [inhibitor, full curve, poor fit] |
| COc1cc2c(cc1OC)-c1cc(=Nc3c(C)cc(C)cc3C)n(C)c(=O)n1CC2 | – | active: 8.91 µM and active: 35.5 µM and active: 21.2 µM |
| COc1ccc(Nc2nc(C(=O)N3CCc4cc(OC)c(OC)cc4C3)cs2)cc1 | – | active: 44.7 µM |
| Cc1nc2sccn2c(=O)c1S(=O)(=O)Nc1ccc(N2CCN(C)CC2)cc1 | – | inconclusive: 0.282 µM [inhibitor, full curve, poor fit] |
| CCCn1c(=O)c(C(=O)NCCc2ccc(Cl)cc2)c(O)c2ccccc21 | inactive: 139% [at 102 µM] | – |

| Structure (SMILES) | activity, negative = inhibition | Potency |
| --- | --- | --- |
| COc1ccc(-n2ccnc(SCC(=O)NCc3ccc(C)cc3)c2=O)cc1Cl | – | inconclusive: 89.1 µM [inhibitor, partial curve, poor fit] |
| N#CCCn1c(=O)c(-c2cccs2)nc2cnc(N3CCOCC3)nc21 | inactive: 5.82% [at 0.501 µM] | – |
| CCCc1nnc(SCC(=O)Nc2cc(C)on2)n1CCOC | – | inconclusive: 100 µM [inhibitor, single point] |
| Cc1cccc(Oc2ccccc2NC(=O)CN2C(=O)NC3(CCCC3)C2=O)c1 | – | inconclusive: 89.1 µM [inhibitor, partial curve, poor fit] |
| COc1ccc(-c2c(C#N)c(SCC(=O)Nc3ccc(C)c(C)c3)nc(C)c2C(=O)Nc2ccc(Cl)cc2)cc1 | inactive: -2.18% | – |
| O=C(NCC1CCCO1)c1cc2c([nH]c3ccccc32)c(-c2cccc(Br)c2)n1 (centres undefined) | – | inconclusive: 89.1 µM [inhibitor, single point] |
| CCOc1ccc(CCNC(=O)C(CC)n2nc(C)c3c(C)n(-c4ccccc4)nc3c2=O)cc1 (centres undefined) | inactive: -3.71% | – |
| Cc1cccc(N2CCN(C(=O)c3sc4nc5n(c(=O)c4c3C)CCC5)CC2C)c1 (centres undefined) | – | inconclusive: 0.794 µM [inhibitor, partial curve, poor fit] |
| CCn1c(O)c(N=NC(=O)c2cccc(S(=O)(=O)N3CCCCC3)c2)c2ccccc21 | – | inconclusive: 25.1 µM [inhibitor, full curve] |
| COc1ccc2[nH]cc(C(=O)CN3CCN(C(=O)c4ccco4)CC3)c2c1 | – | inconclusive: 100 µM [inhibitor, single point] |
| O=C(CCl)Nc1ccc(-c2ccccc2)cc1 | inactive: -0.0886% [at 102 µM] | – |
| COc1cccc(/C=C2\Oc3cc(OCC(=O)N4CCC[C@H]4C(=O)O)ccc3C2=O)c1 | inactive: -9.12% [at 12.7 µM] | – |
| COc1ccc(-c2nn3c(=O)cc(CN4CCN(C(=O)Nc5cc(C)ccc5C)CC4)nc3s2)cc1 | inactive: 16.4% | – |
| COc1ccc(N(Cc2ccc(N(C)C)cc2)C(=O)c2ccc(S(C)(=O)=O)cc2)cc1 | – | active: 12.6 µM |
| CCSc1nnc(-c2cccnc2)n1-c1ccc(Cl)c(C)c1 | – | inconclusive: 89.1 µM [inhibitor, single point] |
| CCN(CC)S(=O)(=O)c1ccc(N2CCOCC2)c(NS(=O)(=O)c2cccs2)c1 | inactive: 4% [at 2.33 µM] | – |
| O=C(OCc1ccccc1F)c1cc([N+](=O)[O-])ccc1N1CCOCC1 | – | inconclusive: 44.7 µM [inhibitor, partial curve, poor fit] |
| O=C(c1cccc2ccccc12)N1CCN(Cc2ccccc2F)CC1 | – | inconclusive: 0.141 µM [inhibitor, full curve, poor fit] |
| O=C(Nc1ccc([N+](=O)[O-])c(NC(=O)C2CCCO2)c1)C1CCCO1 (centres undefined) | – | inconclusive: 31.6 µM [inhibitor, single point] |
| CCOc1cc(C(=O)O)ccc1OCCOc1ccccc1 | inactive: -19.4% [at 102 µM] | – |
| CC(C)NC1=C(Cl)C(=O)c2ccccc2C1=O | – | active: 20 µM |
| Cc1nn(CSc2c(F)c(F)c(F)c(F)c2F)c(C)c1[N+](=O)[O-] | inconclusive: -84% [inhibitor] [at 12.7 µM] | – |
| Cc1ccc(N(CCC(=O)O)S(=O)(=O)c2ccccc2)cc1 | inactive: 10.4% | – |

| Structure (SMILES) | activity, negative = inhibition | Potency |
| --- | --- | --- |
| O=C(/C=C/c1ccco1)Nc1ccc(Oc2ccccc2)cc1 | inconclusive: -88.5% [inhibitor] | – |
| O=C(O)c1ccc(COc2ccc3c4c(c(=O)oc3c2)CCC4)o1 | – | active: 39.8 µM |
| COc1cccc(C(=O)NCCS(=O)(=O)NCc2ccccn2)c1 | – | inconclusive: 89.1 µM [inhibitor, single point] |
| Cc1sc(-c2ccncc2)nc1OC(=O)c1ccc(F)cc1F | – | inconclusive: 89.1 µM [inhibitor, single point] |
| O=c1c2ccccc2sn1-c1cc(S(=O)(=O)N2CCOCC2)ccc1N1CCCC1 | – | inconclusive: 1.12 µM [inhibitor, full curve, poor fit] |
| Clc1ccc(N2COC3c4cccc5cccc(c45)C32)cc1 (centres undefined) | inactive: -4.18% | – |
| O=C1C2C3C=CC(CC3)C2C(=O)N1/N=C/c1c(O)ccc2ccccc12 (centres undefined) | – | active: 25.1 µM |
| CCN(CC)CCN(C(=O)c1ccc(S(=O)(=O)N2CCOCC2)cc1)c1nc2cc3c(cc2s1)OCCO3 | – | inconclusive: 79.4 µM [inhibitor, single point] |
| CCCNC(=O)C/C(C)=N/NC(=O)C(=O)Nc1ccccn1 | – | active: 50.1 µM |
| COc1ccc(/C=C/C(=O)OCC(=O)c2c[nH]c3ccccc23)cc1 | – | inconclusive: 28.2 µM [inhibitor, single point] |
| CC(=O)Nc1ccc(N2C(=O)CSC2c2ccccc2[N+](=O)[O-])cc1 (centres undefined) | – | inconclusive: 79.4 µM [inhibitor, single point] |
| COc1ccc(C(=O)c2sc(NC(C)C)nc2N)cc1OC | – | inconclusive: 89.1 µM [inhibitor, single point] |
| CCOC(=O)N1CCN(C(=O)CSc2nnc(Cc3cccn3C)n2CCc2ccccc2)CC1 | – | inconclusive: 39.8 µM [inhibitor, single point] |
| Cc1ccc(CNC(=O)Cc2c(C(=O)O)c(C)cn2C)cc1 | inactive: 7.85% | – |
| CCOC(=O)COc1c(Br)cc(/C=C2\SC(=O)N(CC(=O)N3CCCC3)C2=O)cc1OC | – | inconclusive: 79.4 µM [inhibitor, single point] |
| CCOc1ccc(-c2cccc(NC(=O)COc3ccccc3)c2)nn1 | inactive: -3.76% [at 102 µM] | – |
| O=C1[C@@H]2C3C=CC(O3)[C@@H]2C(=O)N1c1ccccc1 | inconclusive: -51.7% [inhibitor] [at 2.33 µM] | – |
| Nc1cc(C(=O)O)c(Oc2ccc(Cl)cc2Cl)cc1C(=O)O | – | inconclusive: 79.4 µM [inhibitor, single point] |
| COc1cc(OC)cc(C(=O)NC(=S)NCc2ccco2)c1 | – | active: 44.7 µM |
| CCOC(=O)C1CCN(C(=O)CSc2c3c(nc4ccccc24)CCC3)CC1 | – | inconclusive: 39.8 µM [inhibitor, single point] |
| Cc1ccc(CN(C)C(=O)CCc2c[nH]c3ccccc23)o1 | – | inconclusive: 89.1 µM [inhibitor, single point] |
| COc1ccc(C(=S)N2CCCCCC2)cc1 | – | active: 6.31 µM |
| O=C(OCc1nnc(-c2ccccc2)o1)C1CCN(C(=O)c2ccc(Cl)cc2)CC1 | – | inconclusive: 79.4 µM [inhibitor, partial curve] |
